The source of these data is the RNAGym collection of RNA variant scans (doi:10.7554/elife.90254).

The labels stand for the following.
B1: LINE1-mini (parent)
chain: GGCAGAGCUCAACACAGCGUGGCAAAGUGGCUGUGGCUAGACUGCC

Read counts are not given, so values of variants with three or more changes are uncertain.

The data set covers variants of B1. The data set can be described thus: self-cleavage, relative activity (ratio to wild type); higher = more cleavage; in vitro, sequencing; the parent is a self-cleaving ribozyme.
For G7A C8G U9G A12G G19A U34C G35C, the self-cleavage was 0.02.

With G7A A11C C23U A26G U28C, the self-cleavage stood at 0.01.

As for A6U G30C C46U, the self-cleavage stood at 1.41.

A6U G27U G30U U32C U34G G35A: the self-cleavage is 0.07.

For the variant G7A C18A A26G U43C, the self-cleavage was determined as 0.01.

On to G7A C13U C15U, for which the self-cleavage was 0.19.

In the case of G7A C13U C46A, the self-cleavage stood at 0.2.

On to G7A C13U A41U, for which the self-cleavage worked out at 0.12.

In the case of G7A C8A C10U, the self-cleavage worked out at 0.07.

Consider G7A C15G G17U U32G G36U, for which the self-cleavage was found to be 0.08.

Regarding G7A A12U C13A G27U U32C C37G, the self-cleavage was 0.03.

G7A C15G G29C G35U C46U: the self-cleavage was 0.02.

With G7A C8U G19U G29C, the self-cleavage was determined as 0.03.

For G7A A12C C15U G30U G36A, the self-cleavage is 0.01.

Consider G7A A11C A14U C18G G22A G27U, for which the self-cleavage is 0.01.

Take G7A A16G U32C G35U G44U: the self-cleavage amounted to 0.01.

Take G7A C13U G30A: the self-cleavage is 0.01.

A6U G30U G33U U43C: the self-cleavage stood at 0.95.

Take G7A C8U C15A: the self-cleavage came to 0.36.

Turning to G7A C8G G36C, the self-cleavage came out at 0.07.

In the case of A6U G19U U20A G44C, the self-cleavage is 0.63.

For the variant G7A A14C G44C C46A, the self-cleavage turned out to be 0.11.

Consider G7A C18G G44U, for which the self-cleavage stood at 0.02.

As to G7A C15U G27A U38C, the self-cleavage was found to be 0.11.

For G7A C8G A16U U20A, the self-cleavage stood at 0.07.

On to G7A C13G A14G G36U G44U, for which the self-cleavage came out at 0.02.

For G7A C13U G22C A25U G30A C46U, the self-cleavage came out at 0.06.

For the variant G7A C18A C31U G36A, the self-cleavage was found to be 0.07.

For the variant G7A C18A G21U A41G, the self-cleavage amounted to 0.1.

In the case of G7A C18G G29U, the self-cleavage is 0.06.

Regarding A6U U9G G21U G27U U34A, the self-cleavage stood at 0.01.

In the case of G7A A25G G36C C37U G40A C46U, the self-cleavage amounted to 0.17.

As to G7A C10U A12G C23G, the self-cleavage was determined as 0.

In the case of G7A A12U C46G, the self-cleavage was determined as 0.03.

For the variant G7A A16U G17U A24G, the self-cleavage came out at 0.19.

For the variant G7A C13U A24G, the self-cleavage worked out at 0.27.

Consider G7A C10A G33A, for which the self-cleavage came to 0.05.

For G7A C15A G17A G21A, the self-cleavage is 0.3.

Turning to G7A A14U A25C C31U G35A, the self-cleavage is 0.19.

Turning to A6U U9A C10U G19C G27U, the self-cleavage was found to be 0.06.

On to G7A C8U C10A C45A, for which the self-cleavage was found to be 0.02.

For G7A A12U U43A, the self-cleavage was found to be 0.12.

With G7A C18G C42A, the self-cleavage was determined as 0.07.

On to G7A A41G U43A, for which the self-cleavage turned out to be 0.13.

As to G7A A16C G17C, the self-cleavage is 0.04.

Regarding G7A C8G G27A, the self-cleavage was 0.04.

Take A6U U9A G19A G33A A39U C46A: the self-cleavage was 0.09.

Turning to A6U U9C G22U, the self-cleavage amounted to 0.11.

Take A6U G22C C31G U34C: the self-cleavage turned out to be 0.05.

On to G7A C10U C18U A39U, for which the self-cleavage worked out at 0.04.

Take A6U G22U G40C G44A: the self-cleavage turned out to be 0.3.

For the variant G7A C15U A26U G36A C45G, the self-cleavage was 0.23.

As for G7A A25G C31U G33U, the self-cleavage amounted to 0.02.

As for A6U U20C G22C A24C A39C G40A A41C, the self-cleavage amounted to 0.03.

In the case of G7A A14G U20G A26C, the self-cleavage was 0.14.

A6U U32C C37U: the self-cleavage is 0.02.

For the variant G7A C15U G21A A41U, the self-cleavage amounted to 0.05.

A6U G21U C45U: the self-cleavage worked out at 0.34.

G7A A16C G22C G29A: the self-cleavage was determined as 0.14.

Take G7A C13U G21U: the self-cleavage was determined as 0.08.

In the case of A6U G22C A39G, the self-cleavage is 0.15.

For G7A A16C G40U, the self-cleavage amounted to 0.4.

Take A6U U38G G40C: the self-cleavage worked out at 0.

In the case of G7A C10A G17U G21C, the self-cleavage was found to be 0.03.

With G7A C13U C31U, the self-cleavage was 0.25.

Take G7A A12U C13A G35U: the self-cleavage was 0.22.

Consider A6U G22A G27U G30U G35U G44C, for which the self-cleavage amounted to 0.12.

As to A6U G19U C31U, the self-cleavage worked out at 0.41.

As for G7A C10A G33A A41U, the self-cleavage stood at 0.02.

Take A6U G21A G33A: the self-cleavage came out at 0.05.

Take G7A C10U U38C: the self-cleavage came out at 0.01.

In the case of G7A C15A G33C C37U, the self-cleavage was found to be 0.4.

On to G7A C15U U20G C23A A26G, for which the self-cleavage came out at 0.22.

For the variant G7A C15G A26U G36A, the self-cleavage is 0.09.

Regarding G7A C18A A24G U28C U38C, the self-cleavage is 0.11.

For the variant A6U U32G C46U, the self-cleavage is 0.04.

On to G7A A12U C18U A25C G30U, for which the self-cleavage worked out at 0.01.

On to G7A C15G C18U G29C G33A, for which the self-cleavage was found to be 0.03.

Regarding G7A A16C G27A C45G, the self-cleavage was found to be 0.33.

As for G7A C8U C37A G40U A41C, the self-cleavage amounted to 0.05.

In the case of G7A C18U G22A G29A U32A, the self-cleavage came out at 0.09.

As for G7A C8A C18G G22A, the self-cleavage was 0.15.

Take A6U U9A A14C C15U A26U G40A: the self-cleavage is 0.12.

Regarding G7A A26U C45G, the self-cleavage came out at 0.47.

As for G7A C10A U28A C45U, the self-cleavage came out at 0.01.

Consider G7A C8A C10G A26G C45G C46G, for which the self-cleavage worked out at 0.01.

For the variant G7A A12G U28C, the self-cleavage worked out at 1.57.

Take A6U U9C G21U: the self-cleavage was 0.04.

In the case of G7A C13A U32A G33U U43C C46U, the self-cleavage was found to be 0.12.

Consider G7A C8U A16G G30A G33A, for which the self-cleavage stood at 0.14.

Take A6U U9G A14C G21A C31G: the self-cleavage turned out to be 0.01.

Take G7A A26U U28G G29U: the self-cleavage is 0.14.

Consider G7A C8U C18U G44A C45A, for which the self-cleavage is 0.12.

For the variant G7A A12G G27U, the self-cleavage amounted to 0.04.

Consider A6U G30C A39U C45A, for which the self-cleavage came out at 0.46.

On to G7A A12C C23U G27U, for which the self-cleavage stood at 0.01.

A6U G33U U38C G40A C42A: the self-cleavage amounted to 0.03.

As for G7A C8G U43C, the self-cleavage came out at 0.39.

For the variant A6U G21A G27C A39C, the self-cleavage turned out to be 0.46.

For A6U U9C A24C U32G, the self-cleavage was 0.01.

For G7A A16C C23U G29C U34C C45U, the self-cleavage amounted to 0.11.

Take G7A C15U C23G G36U: the self-cleavage was 0.47.

As for G7A C8U G21U A41G C46A, the self-cleavage amounted to 0.47.

Regarding G7A A12C A14C G44C, the self-cleavage was determined as 0.04.

Turning to G7A A16G G19U U20A A24G G33C, the self-cleavage came to 0.02.

For G7A C15G A41C, the self-cleavage came out at 0.39.

In the case of G7A C8A U9A G19A, the self-cleavage was 0.22.

Turning to G7A C10U C15A G35U A39C, the self-cleavage turned out to be 0.09.

Turning to A6U G21C G33A G40U, the self-cleavage amounted to 0.33.

Consider G7A C8A G21C, for which the self-cleavage came out at 0.11.

On to G7A C8U U28C G29A U34C C42U, for which the self-cleavage is 0.3.

On to G7A C18G U32C, for which the self-cleavage came to 0.11.

Consider G7A A14G C18G G36U A39C, for which the self-cleavage came to 0.2.

For the variant G7A A14C A41C, the self-cleavage is 0.04.

Turning to A6U U9A A24C G30U C46U, the self-cleavage was 0.13.

For A6U G40U G44C, the self-cleavage amounted to 0.86.

As to G7A A14G C15A G33U U43A, the self-cleavage turned out to be 0.07.

With G7A A12U C15G, the self-cleavage was found to be 0.13.

Turning to A6U G22C G33U U38A, the self-cleavage amounted to 0.14.

With G7A C13A G27A G33U C46A, the self-cleavage was 0.17.

With G7A A12G G29C C31U, the self-cleavage is 0.

Take A6U G21A A25U C37A: the self-cleavage amounted to 0.06.

On to A6U G19U A39G, for which the self-cleavage came out at 0.16.

Turning to A6U G19U C37G, the self-cleavage was 0.02.

G7A C18A G21U: the self-cleavage came out at 0.49.

Regarding A6U G33U C45A, the self-cleavage is 0.12.

A6U G30U C42A: the self-cleavage is 0.17.

With G7A C8U U9G A39C, the self-cleavage was 0.55.

Take G7A C8G A12G C13A G19C A26G G40U: the self-cleavage amounted to 0.

A6U U9C U43A: the self-cleavage is 0.03.

G7A C18A G27C G30A G33U: the self-cleavage is 0.03.

Take G7A A16U U34G: the self-cleavage is 0.12.

As to G7A C8G G19A G33U A41C C45A, the self-cleavage came to 0.01.

With G7A A14U G44C, the self-cleavage was found to be 0.5.

As to G7A C8U A24U C31U, the self-cleavage is 0.19.

With A6U U28A C31G, the self-cleavage was 0.1.

In the case of G7A C18A A24G A39G, the self-cleavage was 0.03.

Regarding A6U U9G A12C A14U G22U U34G A41C, the self-cleavage turned out to be 0.01.

For G7A C13G G17U G19U G22U, the self-cleavage amounted to 0.27.

For A6U G29C C42G G44A, the self-cleavage worked out at 0.01.

As for G7A A12C C18U, the self-cleavage was 0.05.

Take A6U G21A A26G U34G: the self-cleavage worked out at 0.13.

Consider A6U U34G G40U, for which the self-cleavage came to 0.03.

In the case of A6U U32A A39U, the self-cleavage was determined as 0.2.

In the case of G7A C13G C42A, the self-cleavage was determined as 0.2.

G7A A26G U28G U34G: the self-cleavage stood at 0.11.

Turning to A6U G21C A39C, the self-cleavage came to 0.12.

On to G7A C8A C18G U20G U32A, for which the self-cleavage came to 0.09.

Regarding A6U U28C G36U A39C, the self-cleavage is 0.

As for G7A C18U C23A G29A C31U, the self-cleavage came to 0.03.

Turning to G7A A26G G30A G35A U38A A39U, the self-cleavage came to 0.08.

On to G7A A11G G17U U20C A25C C31U G33U, for which the self-cleavage came out at 0.

With G7A C15A G19A A24G A41C, the self-cleavage was determined as 0.06.

In the case of G7A C8G C10A C15A G22A G40A, the self-cleavage turned out to be 0.04.

With G7A A25C G29C, the self-cleavage was found to be 0.05.

Take G7A A14U G27C A41C G44A: the self-cleavage worked out at 0.04.

In the case of G7A A12U A16U G27U G35U, the self-cleavage amounted to 0.89.

With G7A C8U G27U G36U U38C, the self-cleavage is 0.06.

For the variant G7A A16U A24C, the self-cleavage was 0.18.

With G7A C15U C23U A41G, the self-cleavage came out at 0.09.

On to G7A A12C C46G, for which the self-cleavage turned out to be 0.02.

On to A6U G27A C37U, for which the self-cleavage amounted to 0.09.

For the variant G7A C15G G35C C42U, the self-cleavage came to 0.21.

For A6U G19C C23U, the self-cleavage was 0.44.

Consider A6U U28C C37G, for which the self-cleavage is 0.

Take G7A A11U G21A G29A: the self-cleavage was 0.04.

In the case of G7A C13A G21C, the self-cleavage came to 0.21.
